For 19 compounds, cell count results are on record in the supplement of paper PMC4604168 (melanoma cell lines).

Structures are written as SMILES. Some of the results follow. Single values are uncertain, as repeats are few or missing.
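Also: cell number obtained by counting DAPI-stained nuclei in high-throughput microscope images with image analysis software, screen run in 1,536-well plates.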

The subject of the experiment is SkMel30. The experiment can be described thus: cell count relative to DMSO control; melanoma cells; higher = more viable cells. The settings on record: library dose: low library concentration; 72 h.
`CC(=O)c1c(C)c2cnc(Nc3ccc(N4CCNCC4)cn3)nc2n(C2CCCC2)c1=O` [palbociclib] + O=C(Nc1cccc(Cl)c1)Nc1ncc(CCNc2ncnc3ccsc23)s1 [SNS314] (first compound 0.04 µM, partner dose 0.0008 µM) yielded a cell count of 93.4%. For `CC(=O)O[C@@]12CO[C@@H]1C[C@H](O)[C@@]1(C)C(=O)[C@H](O)C3=C(C)[C@@H](OC(=O)[C@H](O)[C@@H](NC(=O)OC(C)(C)C)c4ccccc4)C[C@@](O)([C@@H](OC(=O)c4ccccc4)[C@H]21)C3(C)C` [Docetaxel] + N#Cc1c(O)c2c(-c3ccc(-c4ccccc4O)cc3)csc2[nH]c1=O [A769662] (first compound 0.0001 µM, partner dose 2 µM) the value was 37.3%. In turn, `Nc1ccn([C@@H]2O[C@H](CO)[C@@H](O)C2(F)F)c(=O)n1` [gemcitabine] + CC(C)CCN1c2nc(Nc3cc(F)c(O)c(F)c3)ncc2N(C)C(=O)C1C [BID1870] (first compound 0.0004 µM, partner dose 0.2 µM) returned a cell count of 87.6%. Then `Nc1nc(F)nc2c1ncn2[C@@H]1O[C@H](CO)[C@@H](O)[C@@H]1O` [fludarabine] + N#Cc1c(O)c2c(-c3ccc(-c4ccccc4O)cc3)csc2[nH]c1=O [A769662] (first compound 0.2 µM, partner dose 2 µM), with 14.3%; and `Nc1ccn([C@@H]2O[C@H](CO)[C@@H](O)C2(F)F)c(=O)n1` [gemcitabine] + Cc1cc([N+](=O)[O-])ccc1NS(=O)(=O)c1cc(Cl)ccc1Cl [FH535] (first compound 0.0004 µM, partner dose 1 µM), with 94.4%.

For the compound `Nc1ccn([C@@H]2O[C@H](CO)[C@@H](O)C2(F)F)c(=O)n1` [gemcitabine] + Cc1cc(N2CCOCC2)cc2[nH]c(-c3c(NC[C@@H](O)c4cccc(Cl)c4)cc[nH]c3=O)nc12 [BMS536924] (first compound 0.0004 µM, partner dose 0.2 µM), the cell count was 115%. For `Nc1nc(F)nc2c1ncn2[C@@H]1O[C@H](CO)[C@@H](O)[C@@H]1O` [fludarabine] + CO[C@@H]1[C@H](N(C)C(=O)c2ccccc2)C[C@H]2O[C@]1(C)n1c3ccccc3c3c4c(c5c6ccccc6n2c5c31)C(=O)NC4 [Midostaurin] (first compound 0.2 µM, partner dose 0.08 µM) the value was 15%; for `Nc1ncn([C@H]2C[C@H](O)[C@@H](CO)O2)c(=O)n1` [decitabine] + O=C1NC(=O)/C(=C/c2ccc(-c3ccc(F)cc3O)o2)S1 [AS252424] (first compound 0.1 µM, partner dose 1 µM), 79.4%. Then `Nc1ncn([C@H]2C[C@H](O)[C@@H](CO)O2)c(=O)n1` [decitabine] + CC(C)(C)c1cnc(CSc2cnc(NC(=O)C3CCNCC3)s2)o1 [SNS-032] (first compound 0.1 µM, partner dose 0.01 µM), with 96.5%. Regarding `Nc1ccn([C@@H]2O[C@H](CO)[C@@H](O)C2(F)F)c(=O)n1` [gemcitabine] + COc1ccc2c(c1)CCC1C2CCC2(C)C(NCCCCCCN3C(=O)C=CC3=O)CCC12 [U73122] (first compound 0.0004 µM, partner dose 0.4 µM), the cell count was determined as 93.9%. Then `Nc1ncn([C@H]2C[C@H](O)[C@@H](CO)O2)c(=O)n1` [decitabine] + COc1cc2c(Oc3ccc4[nH]c(C)cc4c3F)ncnc2cc1OCCCN1CCCC1 [cediranib] (first compound 0.1 µM, partner dose 0.4 µM), with 103%; and `Nc1ncn([C@H]2C[C@H](O)[C@@H](CO)O2)c(=O)n1` [decitabine] + CN(C)S(=O)(=O)c1ccc2c(c1)/C(=C/c1cc3c([nH]1)CCCC3)C(=O)N2 [SU6656] (first compound 0.1 µM, partner dose 0.4 µM), with 107%; and `CC(=O)O[C@@]12CO[C@@H]1C[C@H](O)[C@@]1(C)C(=O)[C@H](O)C3=C(C)[C@@H](OC(=O)[C@H](O)[C@@H](NC(=O)OC(C)(C)C)c4ccccc4)C[C@@](O)([C@@H](OC(=O)c4ccccc4)[C@H]21)C3(C)C` [Docetaxel] + COc1cc(N2CCC(N3CCN(C)CC3)CC2)ccc1Nc1ncc(Cl)c(Nc2ccccc2S(=O)(=O)C(C)C)n1 [NVP-TAE684] (first compound 0.0001 µM, partner dose 0.08 µM), with 34.4%. For `Nc1nc(F)nc2c1ncn2[C@@H]1O[C@H](CO)[C@@H](O)[C@@H]1O` [fludarabine] + O=C(Nc1cccc(Cl)c1)Nc1ncc(CCNc2ncnc3ccsc23)s1 [SNS314] (first compound 0.2 µM, partner dose 0.0008 µM) the value was 16.7%; for `CC(=O)O[C@@]12CO[C@@H]1C[C@H](O)[C@@]1(C)C(=O)[C@H](O)C3=C(C)[C@@H](OC(=O)[C@H](O)[C@@H](NC(=O)OC(C)(C)C)c4ccccc4)C[C@@](O)([C@@H](OC(=O)c4ccccc4)[C@H]21)C3(C)C` [Docetaxel] + CC(C)CCN1c2nc(Nc3cc(F)c(O)c(F)c3)ncc2N(C)C(=O)C1C [BID1870] (first compound 0.0001 µM, partner dose 0.2 µM), 26.3%; for `Nc1ncn([C@H]2C[C@H](O)[C@@H](CO)O2)c(=O)n1` [decitabine] + COc1ccc(-c2ccc3c(N4CCOCC4)nc(N4C[C@@H](C)O[C@@H](C)C4)nc3n2)cc1CO [KU0063794] (first compound 0.1 µM, partner dose 0.02 µM), 94.7%.

Regarding `Nc1ccn([C@@H]2O[C@H](CO)[C@@H](O)C2(F)F)c(=O)n1` [gemcitabine] + CC1(C)NC(=O)N(c2ccc([N+](=O)[O-])c(C(F)(F)F)c2)C1=O [nilutamide] (first compound 0.0004 µM, partner dose 1 µM), the cell count was 120%.

In turn, `CC(=O)c1c(C)c2cnc(Nc3ccc(N4CCNCC4)cn3)nc2n(C2CCCC2)c1=O` [palbociclib] + CC(C)(C)c1cnc(CSc2cnc(NC(=O)C3CCNCC3)s2)o1 [SNS-032] (first compound 0.04 µM, partner dose 0.01 µM) registered a cell count of 90.2%.

Compound `Nc1ccn([C@@H]2O[C@H](CO)[C@@H](O)C2(F)F)c(=O)n1` [gemcitabine] + Cc1ccc(NC(=O)c2cccc(N(C)C)c2)cc1NC(=O)c1ccc(O)cc1 [ZM336372] (first compound 0.0004 µM, partner dose 2 µM) gave a cell count of 90.6%.
